Laboratory results as given in article PMC4336329 (PLoS ONE, 2015).
The whole screen tested about 310,000 compounds, of which about 14,000 (4.5%) showed an effect of 50% or more. Effects have a minus sign here. The list shows a part of the results.

Each compound was assayed against human ether-à-go-go-related gene (hERG) potassium channel (human, UniProt Q12809) (assay: primary screen, population patch clamp on CHO cells stably expressing hERG).
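Further: peak tail current of the secondary pulse compared with the same well before compound.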

Chain of human ether-à-go-go-related gene (hERG) potassium channel (Q12809 whole entry, looked up): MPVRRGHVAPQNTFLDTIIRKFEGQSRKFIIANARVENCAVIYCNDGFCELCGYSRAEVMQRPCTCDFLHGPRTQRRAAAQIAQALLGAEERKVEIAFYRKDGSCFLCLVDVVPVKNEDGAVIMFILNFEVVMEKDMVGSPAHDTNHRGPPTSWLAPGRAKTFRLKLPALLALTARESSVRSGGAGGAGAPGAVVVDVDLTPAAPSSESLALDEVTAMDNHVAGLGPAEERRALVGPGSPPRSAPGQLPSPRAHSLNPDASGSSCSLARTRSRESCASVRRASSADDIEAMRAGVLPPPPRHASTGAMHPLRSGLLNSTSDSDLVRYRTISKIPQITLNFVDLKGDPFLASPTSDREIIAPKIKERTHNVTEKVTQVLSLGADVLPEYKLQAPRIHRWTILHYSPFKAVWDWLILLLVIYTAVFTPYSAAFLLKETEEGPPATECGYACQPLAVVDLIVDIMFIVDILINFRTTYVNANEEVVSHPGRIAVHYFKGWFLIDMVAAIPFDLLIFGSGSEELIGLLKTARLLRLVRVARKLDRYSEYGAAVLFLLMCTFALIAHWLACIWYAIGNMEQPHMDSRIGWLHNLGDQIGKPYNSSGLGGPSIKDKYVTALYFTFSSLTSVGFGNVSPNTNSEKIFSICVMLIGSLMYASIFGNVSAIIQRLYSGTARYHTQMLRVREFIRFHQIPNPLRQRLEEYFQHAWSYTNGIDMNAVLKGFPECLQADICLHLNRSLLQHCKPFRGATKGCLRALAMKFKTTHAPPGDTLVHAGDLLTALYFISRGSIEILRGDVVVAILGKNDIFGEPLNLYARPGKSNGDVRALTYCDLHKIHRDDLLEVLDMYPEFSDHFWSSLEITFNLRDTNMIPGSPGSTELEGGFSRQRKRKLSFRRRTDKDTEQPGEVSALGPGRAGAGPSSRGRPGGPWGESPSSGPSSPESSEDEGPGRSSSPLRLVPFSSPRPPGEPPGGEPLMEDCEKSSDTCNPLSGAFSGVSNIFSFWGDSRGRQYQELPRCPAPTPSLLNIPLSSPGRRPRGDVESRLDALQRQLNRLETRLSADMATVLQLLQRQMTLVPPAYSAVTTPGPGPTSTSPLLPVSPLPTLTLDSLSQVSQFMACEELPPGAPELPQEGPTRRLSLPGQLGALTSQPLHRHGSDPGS

SMILES | hERG current change (%, negative = inhibition) at 10uM [%]
CCS(=O)(=O)n1nc(-c2ccco2)nc1N | -21.2
O=C(NC(Cc1ccccc1)C(=O)OCC(=O)N1CCc2ccccc21)c1ccco1 (stereo not shown) | 0.762
Fc1cccc(C2NCCc3[nH]cnc32)c1 (stereo not shown) | 23.5
O=[N+]([O-])c1cccc(/C=N/n2c(COc3ccccc3)n[nH]c2=S)c1 | -20.1
Cc1ccc(NC(=O)c2ccc(OCC3CCCO3)cc2)nc1 (stereo not shown) | -2.69
Oc1ccc(Br)cc1/C=N/n1cnc2ccccc21 | 13.1
Cc1cc(C)cc(N(CCC(=O)Nc2nnc(C)s2)S(=O)(=O)c2ccc(Cl)cc2)c1 | 17.4
CC(=O)N1CCc2cc(S(=O)(=O)CCC(=O)Nc3cc(C)cc(C)c3)ccc21 | -1.42
CCN(CC)c1ccc(N2C(=NC(=O)C3CCCO3)SC3CS(=O)(=O)CC32)cc1 (stereo not shown) | 3.6
CC(=O)c1ccc(N2CCN(S(=O)(=O)c3ccc(-c4cc(C)no4)s3)CC2)cc1 | -1.08
O=C(CCC1CCCN(Cc2ccc3c(c2)CCO3)C1)NCc1ccc(F)c(F)c1 (stereo not shown) | -63.7
CN1CCN(Cc2cccc(Oc3ccc(Cl)cc3)c2)CC1 | 1.98
CCOc1ccccc1NC(=O)c1cc(S(=O)(=O)N2CCN(CC)CC2)ccc1Cl | -27.6
Cc1ccc2c(c1)C(O)(CC(=O)c1cccc(-n3cccc3)c1)C(=O)N2 (stereo not shown) | 16.8
CCC(=Nc1ccccc1NC(C)=O)c1c(O)n(C)c(=O)n(C)c1=O | -5.43
CC1(C)NC(=O)[C@H]2CCCN21 | 12.9
CCc1nnc(NC(=O)CSc2ncnc3c2oc2ccccc23)s1 | 8.42
Cc1ccc(S(=O)(=O)N2CCN(C(=O)CC(C)n3nc(C)c(Cl)c3C)CC2)cc1C (stereo not shown) | -0.217
O=C(NCCCN1CCCC1=O)c1ccc(NS(=O)(=O)c2ccccc2)cc1 | 0.22
Cn1nc(-c2ccccc2F)c2cc(C(=O)Nc3ccc4c(c3)OCCO4)sc21 | 14.8
Cc1cccc(N2C(N)=NC(N)=NC23CCCCC3)c1.Cl | 2.94
CCCNC(=O)CCc1c(C)nc2nc(C)nn2c1C | 9.45

SMILES | hERG current change (%, negative = inhibition) at 10uM [%]
COc1ccc(NC(=O)c2cc(-c3ccc4c(c3)OCO4)on2)cc1OC | -26.6
COC(=O)c1ccc(/C=N/n2c(C)nc3ccccc3c2=O)cc1 | 12.3
CC(C)C[C@H](N)c1nnc(S(=O)(=O)Cc2ccc(F)cc2)o1.Cl | 9.97
O=C(Cc1cccc(C(F)(F)F)c1)NCc1ccc(Cl)cc1 | -18.3
CCOc1ccc(-c2cc3nc(C4CCN(C(=O)OC(C)(C)C)CC4)c(C(=O)O)cn3n2)cc1 | 6.05
COc1cc2c(cc1OC)C1=NC(=O)CN1C(SCc1ccc(C)cc1)=N2 | 15.8
COC(=O)CCCCNC(=O)Nc1ccccc1 | 10.8
CC(C)(C)NC(=S)NCCc1ccccc1 | 22.7
Cc1cc(C)n(CCCNC(=O)CN(C)S(=O)(=O)c2ccc(Cl)cc2)n1 | -17.2
CCOc1ccc(NS(=O)(=O)c2ccc(C)c(C(=O)NCCCn3ccnc3)c2)cc1 | 24.1
COc1ccc(CNC(=S)N/N=C/c2ccc(OC)c(OC)c2)cc1 | 0.504
O=S(=O)(Nc1cccc2ccccc12)c1cccc2nonc12 | 3.98
O=C(NC(=O)N1CCCC1)c1csnn1 | 14
Fc1cccc(/C=N/Nc2nncc3ccccc23)c1 | -13.6
Nc1nnc(SCC(=O)OCc2ccc(Cl)c(Cl)c2)s1 | 12.2
Cc1ccc2nc3c(cc2c1)CN(Cc1ccco1)C(=NCC1CCCO1)S3 (stereo not shown) | 0.231
C/C=C(/C)C(=O)Nc1cccc(C2=NOC3(C2)C[C@H](C(N)=O)N(C(=O)Cc2ccc([N+](=O)[O-])cc2)C3)c1 (stereo partly shown) | -5.06
COc1ccc(CCNC(=O)CCNS(=O)(=O)c2cccc3nsnc23)cc1OC | 5.26
COc1cc(C2N(c3ccccc3)CCN2c2ccccc2)ccc1OC(C)=O | -1.36
CCC(C)NC(=O)C1CCCN1S(=O)(=O)c1ccc(Cl)cc1 (stereo not shown) | 12.4
Cc1ccc(NC(=S)N(CCN(C)C)C(C)c2ccco2)cc1C (stereo not shown) | -44.3
COCC(C)NC(=O)C(C)N1c2cccc3cccc(c23)S1(=O)=O (stereo not shown) | 20.3

SMILES | hERG current change (%, negative = inhibition) at 10uM [%]
CC(=O)Nc1cccc(NC(=O)C(C)N2c3cccc4cccc(c34)S2(=O)=O)c1 (stereo not shown) | -3.03
COc1ccc(C[C@H]2NC[C@H](O)[C@H]2OC(C)=O)cc1 | 5.98
C=CCN(c1ccc(OC)cc1)S(=O)(=O)c1ccc(Cl)c(C(=O)OCC(=O)NC2CC2)c1 | -11.5
O=C(CSc1cn(CCNC(=O)c2cccs2)c2ccccc12)NC1CCCC1 | -36.5
Cc1ccc(C)c(S(=O)(=O)NCCC(=O)N2CCCC(C(N)=O)C2)c1 (stereo not shown) | -0.00222
Clc1ccc(Cn2nnc(-c3ccc(N4CCOCC4)cc3)n2)cc1 | 4.16
NNc1nc(Nc2ccccc2)nc(Nc2ccccc2)n1 | 1.94
CCCC(=O)NCCc1cc2c(C)ccc(C)c2[nH]c1=O | -5.19
CC(C)Oc1ccc(C(=O)OC(C)C(=O)Nc2nc(-c3cccc([N+](=O)[O-])c3)cs2)cc1 (stereo not shown) | 6.27
CCCCCCn1c(NCC)nc2c1c(=O)n(C)c(=O)n2C | 2.03
O=C1C(C=NCCN2CCOCC2)=C(O)c2ccccc21 | 0.0703
O=C(COc1cc2oc(=O)c3c(c2cc1Cl)CCC3)NCCCn1ccnc1 | -34.9
CCCc1ccc(C(=O)N2CCN(c3ccccc3OCC)CC2)cc1 | -56.3
N/C(=N\OC(=O)C1CC1)c1ccc([N+](=O)[O-])s1 | 8.23
Cc1cc(NN)nc(NS(=O)(=O)c2ccc(Cl)cc2)n1 | 23.4
CC(C)C(NC(=O)c1ccc(C(C)(C)C)cc1)C(=O)OCC(=O)NC(=O)Cc1ccccc1 (stereo not shown) | 8.36
Cc1cccc2cc(/C=N/NC(=O)CN3CCOCC3)c(Cl)nc12 | -1.73
COc1ccc(S(=O)(=O)N2CCCOC2CNC(=O)C(=O)NCc2ccncc2)cc1 (stereo not shown) | -0.238
Cc1nc2sccn2c(=O)c1S(=O)(=O)NCC1CCN(Cc2ccccc2Cl)CC1 | -25.9
Cc1ccccc1-n1nnnc1SCc1ncc(-c2ccccc2)o1 | 0.503
CCCC(C)NC(=O)COC(=O)c1cc(Br)c(Br)s1 (stereo not shown) | 0.346
COc1cc2c(cc1OC)CN(C(=O)c1sc(-c3cnccn3)nc1C)CC2 | 0.572

SMILES | hERG current change (%, negative = inhibition) at 10uM [%]
O=S1(=O)CCOC[C@H](CC2CCCCC2)N1Cc1ccccc1F | 10.1
COC(=O)CCN1CCN(S(=O)(=O)c2cccc(Br)c2)CC1 | 8.58
CCN(CC)CCNC(=O)c1cn(C)c2ccc(S(=O)(=O)N(C)C3CCCCC3)cc2c1=O | -42.8
Cc1cccc(NC(=O)CCC(=O)Nc2nnc(C(F)(F)F)s2)c1 | 12.7
CCCCCn1c(=O)c(C(=O)Nc2nc(CC(=O)OCC)cs2)c(O)c2ccccc21 | 32.6
COc1nc(-c2ccccc2)nc(-c2ccccc2)c1C | 9.92
CCN1CCCC1CNCC(O)COc1ccc(C(C)(C)C)cc1C.O=C(O)C(=O)O (stereo not shown) | -54.4
CCCCCOP(=O)(OCCCCC)C1(NS(=O)(=O)c2ccccc2)C=CC(=O)c2ccccc21 (stereo not shown) | 9.76
Cc1cc(Oc2ccc(Cl)cc2)nc(SCC(=O)c2ccccc2)n1 | 3.88
O=C(COc1ccccc1)N1CCN(S(=O)(=O)c2ccc(Cl)cc2)CC1 | -2.27
COc1cccc(-n2nnc3c(=O)n(Cc4ccccc4Cl)cnc32)c1 | -5.5
COc1ccc(CNC(=O)C(=O)NCc2cccnc2)cc1 | -6.16
O=C(NCc1cccc(F)c1)C1CCC(=O)N(CC2CCCCC2)C1 (stereo not shown) | -9.08
Cc1ccc(/C=N/NC(=O)c2sccc2OCc2ccc(F)cc2)cc1 | 6.54
CC1=NN(C(=O)Cc2ccccc2)C(O)(c2ccccc2)C1 (stereo not shown) | 19.1
Cc1ccc(S(=O)(=O)NCCCCCC(=O)Nc2ccccn2)cc1 | -11
COc1ccc(C(=O)C[n+]2cn(C(F)F)c3ccccc32)c(F)c1.[Br-] | -4.45
Cc1ccc(-n2c(N)cc(=O)nc2SCC(=O)NC2CCCCC2)cc1C | 8.7
CC(C)(C)c1ccc(C(=O)O/N=C(\N)c2ccccn2)cc1 | 21.1
O=C(NCc1cccc(Cl)c1)c1ccco1 | -1.61
O=C(Nc1nc(-c2ccccc2)cs1)C1c2ccccc2Oc2ccccc21 | 5.83
COC/C=C/C1=CC2=CC(=O)C(C)(OC(=O)c3cnc4ccccc4n3)C(=O)C2=CN1CC1CC1 (stereo not shown) | 11.5
